# Results taken from the supplement of paper PMC3334620.
# Whole data set: some 33,000 sequences, median “E-score (-0.5 to 0.5)” near -0.012, cut for the highest 2% near 0.27. This is one part of the list.
# Target: T1, Vhr1 (UniProt P40522)
# T1 sequence: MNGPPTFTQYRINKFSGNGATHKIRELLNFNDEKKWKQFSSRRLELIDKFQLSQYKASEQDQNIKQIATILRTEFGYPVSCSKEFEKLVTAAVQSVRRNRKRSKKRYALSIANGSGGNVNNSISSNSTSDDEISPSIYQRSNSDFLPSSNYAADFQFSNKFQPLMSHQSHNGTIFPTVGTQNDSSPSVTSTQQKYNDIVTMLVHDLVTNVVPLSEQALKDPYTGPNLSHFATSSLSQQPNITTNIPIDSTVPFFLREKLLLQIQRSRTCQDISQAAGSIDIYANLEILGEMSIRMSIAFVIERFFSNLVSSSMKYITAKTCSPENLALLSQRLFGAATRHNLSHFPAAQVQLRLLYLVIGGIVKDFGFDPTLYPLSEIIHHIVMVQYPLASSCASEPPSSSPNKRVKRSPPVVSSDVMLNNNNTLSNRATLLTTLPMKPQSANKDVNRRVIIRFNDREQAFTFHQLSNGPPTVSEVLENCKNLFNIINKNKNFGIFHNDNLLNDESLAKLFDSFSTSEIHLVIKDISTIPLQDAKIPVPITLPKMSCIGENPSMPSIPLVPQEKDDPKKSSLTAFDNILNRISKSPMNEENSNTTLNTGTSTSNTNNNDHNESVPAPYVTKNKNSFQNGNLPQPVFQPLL
# Test: PBM E-score (8-mer binding enrichment) (E-score (-0.5 to 0.5)); higher = stronger / more preferred TF binding; most listed sequences are background and not binding sites
# Conditions: protein concentration: 200 nM; construct: GST-full length
# In short: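 Using PURExpress in vitro transcription/translation, GST-tagged yeast transcription factors were made in full-length or DNA-binding-domain form. These were applied at about 100-200 nM to double-stranded universal all-10-mer Agilent arrays, and bound protein was detected with fluorescent anti-GST. Scans were normalised with masliner before the Universal PBM Analysis Suite assigned E-scores to ungapped eight-base words pooled with their reverse complements.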
row,Sequence,PBM E-score
1,ATCTTAAG,-0.155
2,ATCAGAAA,-0.08
3,AACGCCCC,-0.114
4,ATTCTCAG,-0.0748
5,AATAGGGC,-0.124
6,ACTTTCAT,-0.25
7,CAGGTGGA,-0.149
8,TGTAACAA,0.0422
9,AGAAACCA,0.224
10,GGGGAAAA,-0.247
11,ATCCTAGC,0.104
12,GTTCTACA,-0.0498
13,CGGCTGCA,-0.0624
14,CAGAACGA,0.0335
15,CATAGGAC,-0.0393
16,AGATCGCC,0.067
17,GCTACGTA,-0.0244
18,ACTTGCAT,0.182
19,ATTGCAGC,0.0423
20,ACAGCGGG,-0.00937
21,CCCATACA,0.119
22,ACCTAAAC,0.0506
23,ATGCCTGG,-0.0184
24,ACCCGTGC,-0.0423
25,CCTGCAGG,-0.021

row,Sequence,PBM E-score
1,CAAGATTG,-0.0519
2,CATAGTCA,0.37
3,AGAAGAGG,-0.188
4,ATAACTAC,0.044
5,CACCCCTC,0.104
6,CGAGTCTC,0.0296
7,CGACCTAA,0.0404
8,GTTTATAA,-0.168
9,CTTTATTC,-0.0969
10,CCCTGGCC,-0.0793
11,GCCACCGC,0.0472
12,ATCGGTTA,0.206
13,GAAGAAAA,-0.221
14,GCACTCCC,-0.0028
15,ATCGAGAT,-0.0629
16,CGCCTTGA,-0.0352
17,TCGGTCAA,-0.0603
18,CGTCGCTA,-0.0463
19,AAAGACCG,-0.139
20,GAAACTGA,-0.118
21,CCGACCTA,0.14
22,AATTTAGC,-0.143
23,ACGCGACG,0.064
24,CACTACAA,0.194
25,AAAGTTCT,-0.274

row,Sequence,PBM E-score
1,ACGGCGAT,0.085
2,ACATAAGT,0.113
3,GATTAAGC,0.0661
4,AAACTTCA,-0.239
5,CTCCCCGA,-0.116
6,CAAATCTG,0.0928
7,CACTATGG,-0.039
8,CTTTACGC,-0.0788
9,CAATCCAG,-0.0547
10,CAAAGCGG,-0.197
11,AGCGTCAT,0.0249
12,AGAGTGTG,0.14
13,ACAGTTAG,-0.0254
14,ACACATAG,0.102
15,GACTCGTA,0.327
16,GAGCCTAA,-0.212
17,GAAGGCGC,-0.173
18,ATAATTCA,0.0282
19,CGTTAACG,-0.102
20,CAAGAACC,-0.00828
21,TGCCGTAA,-0.243
22,TCTGACAA,-0.0506
23,CCGTTCCA,-0.0911
24,CGCAACTA,0.0783
25,AGCTATTA,0.0902

row,Sequence,PBM E-score
1,GAGAGAAC,0.0206
2,ACTGGAAT,0.12
3,CGCAGGGC,0.0378
4,AATGTTAG,-0.144
5,CACAAGCG,0.0849
6,GCTCCTGA,0.00917
7,CGGTTGCC,-0.0155
8,CGGAATAG,0.069
9,TATCTTCA,-0.0949
10,CAGTGTAC,0.141
11,TAACAATA,0.0499
12,AATCAATG,0.0855
13,GGTGCTAA,-0.166
14,GTGTGAGA,0.0943
15,AATCTACG,0.0537
16,CACAACTA,0.159
17,ATGGTTGA,0.208
18,ACGGCCAC,-0.0418
19,CGCGTGGC,-0.199
20,AATTCAGG,-0.0295
21,CTCACAAA,0.075
22,TAAGGATA,0.0424
23,ATTATTCA,0.163
24,CCTTTATC,-0.252
25,CTCCCAGC,-0.0318

row,Sequence,PBM E-score
1,AGACTACG,-0.00303
2,GAGGCTCA,-0.143
3,GCATACAC,0.0355
4,AAATATAG,0.103
5,CATTTTGA,-0.0193
6,CGACCCCG,0.134
7,CGCTTAAA,-0.0453
8,CGTAACGA,-0.169
9,CGTTCGCA,0.0323
10,CCGGGTAG,0.00591
11,ACTGCGGC,0.0931
12,CGCACCCC,-0.00442
13,TTAGCCAA,-0.0266
14,TAACAGAA,-0.069
15,TAAGTGTA,-0.144
16,GCTGGGAA,0.0455
17,ATCTCTCA,0.155
18,AAGCGATG,-0.0712
19,GGAGATTA,0.0348
20,GAAAACAA,-0.041
21,TGGGCCAA,-0.255
22,CAGGTGGG,-0.0876
23,CAAGATAC,-0.00685
24,ATAAGCAT,-0.279
25,ATGTATAA,0.111

row,Sequence,PBM E-score
1,ATGGAAGA,0.0176
2,AATCCCAC,-0.0307
3,GCTCCAGA,-0.128
4,CCCCAGCC,-0.0671
5,CGTCGCCC,-0.0332
6,ATGTGGGC,0.0309
7,CATTACGC,-0.0785
8,ACGGACGG,-0.00784
9,CGATAGGA,0.129
10,CACAGCTA,0.0884
11,AGCGACAC,0.122
12,AACTGTCG,-0.146
13,AATCCTCC,-0.0502
14,ACGGCTGA,0.11
15,CCTTCTTC,-0.233
16,CGGTGATC,0.04
17,TGAACGCA,0.035
18,AATCTTCG,-0.0308
19,AGCCGACA,0.0595
20,CTATCTCC,-0.208
21,TAAAAGCA,-0.146
22,AGAATAAT,0.0882
23,TCTTGGAA,-0.0639
24,AGGCCACC,-0.0743
25,AGGCTCAC,-0.0235

row,Sequence,PBM E-score
1,CTTCGGAA,0.0346
2,GACCCCCC,-0.314
3,ATACTTCG,0.00739
4,AGCATTTC,-0.185
5,CACTTAAA,-0.145
6,CCTCTACA,-0.195
7,AAAGTTGA,-0.3
8,ATGTTTGG,0.0148
9,CCAACAAC,0.101
10,AAGCGCCG,-0.234
11,GATCTTGA,0.156
12,GGACGAAA,-0.114
13,GCCATGCC,0.00234
14,GCATTGGA,-0.166
15,GAAGGGTA,0.0935
16,ATACTAAT,0.238
17,GTGGGTTA,0.149
18,CATAATAC,-0.0362
19,CAGATATG,0.0938
20,ATTCTAGC,-0.0864
21,TCAAAGAA,-0.349
22,ACAAGCGG,-0.0447
